Measurements: PubChem BioAssay AID887 (National Center for Advancing Translational Sciences (NCATS), 2007)
The campaign covered roughly 74,000 compounds. About 1,100 (1.5%) were called active. Inconclusive results, whose numbers are uncertain, are shown with a selection of clear calls. The call rests on the fitted dose curve; in most records, active means well fitted inhibition curve with a large enough effect; inconclusive means small, poorly fitted or top-dose-only effect; inactive means no such curve, though single readings can be large or run the other way. Potencies of inconclusive entries are left out as doubtful fits. Some structures have more than one record in an assay (separate samples or runs), and their calls can disagree.

These molecules were tested against Polyunsaturated fatty acid lipoxygenase ALOX15 (Homo sapiens) (UniProt P16050) (assay: qHTS Assay for Inhibitors of 15-hLO (15-human lipoxygenase)). Conditions: purified 15hLO-1, xylenol orange hydroperoxide absorbance; activity change, negative = inhibition: at 57.1 µM (top of the series) unless noted.
How it was run: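 Inhibition is scored from a chromogenic endpoint. After 15 min enzyme-compound contact, arachidonic acid (50 uM final) reacts 6 min with 40 nM 15hLO-1 at room temperature, then Fe-XO reagent is added for 30 min and absorbance ratio recorded.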
Further: nearly all actives have a fitted effect of over 55% in size.
On the % scale 0 is the no-effect control and ±100 the full control effect; potency means the concentration at half of the fitted maximal effect; tags describe the fitted curve by direction and shape.

UniProt P16050, sequence (P16050 whole entry, looked up): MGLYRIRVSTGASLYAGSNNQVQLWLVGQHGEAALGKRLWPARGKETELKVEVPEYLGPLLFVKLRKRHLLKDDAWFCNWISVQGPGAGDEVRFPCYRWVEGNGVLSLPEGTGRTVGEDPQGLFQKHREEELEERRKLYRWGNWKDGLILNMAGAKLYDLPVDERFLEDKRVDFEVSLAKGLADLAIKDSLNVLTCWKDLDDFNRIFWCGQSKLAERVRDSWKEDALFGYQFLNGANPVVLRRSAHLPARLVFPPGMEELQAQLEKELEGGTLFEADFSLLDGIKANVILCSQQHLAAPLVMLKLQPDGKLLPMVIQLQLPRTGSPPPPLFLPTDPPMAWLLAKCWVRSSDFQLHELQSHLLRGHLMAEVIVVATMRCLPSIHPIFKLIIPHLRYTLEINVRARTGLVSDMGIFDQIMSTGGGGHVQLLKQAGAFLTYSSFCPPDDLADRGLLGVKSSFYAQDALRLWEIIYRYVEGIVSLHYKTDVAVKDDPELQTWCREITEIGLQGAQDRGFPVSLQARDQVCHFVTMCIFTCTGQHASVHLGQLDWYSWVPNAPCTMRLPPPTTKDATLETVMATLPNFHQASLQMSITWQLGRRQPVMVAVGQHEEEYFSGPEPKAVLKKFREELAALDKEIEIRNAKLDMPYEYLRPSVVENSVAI

Row | SMILES | Potency | activity change, negative = inhibition
1 | CCOC(=O)C1=C(N2CCCCC2)c2cc3c(n2C1=O)CCCC3 | inconclusive [inhibitor, single point] | –
2 | CN(C)c1ncc2nc(-c3ccc(Cl)cc3)c(=O)n(CCC#N)c2n1 | inactive | –
3 | CCCn1c(-c2ccc(F)cc2)nc2c(NCCCN3CCOCC3)nc(C)nc21 | inactive | –
4 | Nc1c[n+](N2CCOCC2)no1 | inconclusive [inhibitor, single point] | –
5 | Cc1ccc2nc(NC(=O)CN(C)S(=O)(=O)c3ccc(Br)s3)sc2c1 | inconclusive [inhibitor, partial curve] | –
6 | CC(C)C1=CC2=CC[C@@H]3[C@](C)(CO)CCC[C@]3(C)C2CC1 (stereo partly drawn) | active: 1.58 µM | –
7 | Cc1c(NC(=O)C(C)OC(=O)c2cc3c4ccccc4n(C)c3s2)c(=O)n(-c2ccccc2)n1C (stereo not drawn) | active: 31.6 µM | –
8 | Cc1ccc2nc3ccc(N4CCN(C)CC4)nn3c(=O)c2c1 | inactive | –
9 | N#Cc1c(N)[nH]c(=S)c(C#N)c1-c1ccccc1 | inconclusive [inhibitor, partial curve] | –
10 | COC1=CC(=O)C(O)=C/C1=C\C=C\c1ccccc1 | inconclusive [inhibitor, full curve] | –
11 | CN1C(=O)C2(c3ccccc31)N(C)CC(c1ccccn1)C21SC(=S)N(Cc2ccco2)C1=O (stereo not drawn) | inconclusive [inhibitor, partial curve] | –
12 | COc1cccc(C(=O)NCC(c2cccnc2)N2CCN(c3ccccc3OC)CC2)c1 (stereo not drawn) | active: 12.6 µM | –
13 | c1ccc(C[n+]2cccc(-c3cc4ccccc4[nH]3)c2)cc1 | – | inactive: 3.03% [at 11.4 µM]
14 | CCOC(=O)c1cccc(-n2c(C)nc3ccccc3c2=O)c1 | inconclusive [inhibitor, single point] | –
15 | OC1CN=C2CCCc3c2n(c2ccc(Cl)cc32)C1 (stereo not drawn) | inconclusive [inhibitor, single point] | –
16 | Cc1cc(C)nc(-n2nc(C)cc2NC(=O)c2cc(=O)c3ccccc3o2)n1 | inactive | –
17 | COCCOC(=O)C1=C(C)NC(=O)NC1c1c(F)cccc1Cl (stereo not drawn) | inconclusive [inhibitor, full curve, poor fit] | –
18 | CCOC(=O)c1c(N)sc2c(OC)c(Br)ccc12 | inconclusive [inhibitor, single point] | –
19 | COc1cc(C2C(C#N)=C(N)Oc3c2oc(CO)cc3=O)ccc1OC(C)C (stereo not drawn) | active: 20 µM | –
20 | COc1ccc(S(=O)(=O)N2CCN(C(=O)COc3ccc4c(C)cc(=O)oc4c3)CC2)cc1 | inactive | –
21 | CCN(CC)S(=O)(=O)c1cccc(C(=O)Nc2ccc(Cl)cn2)c1 | inactive | –
22 | Cc1nc(NC2CCCCC2)c2nc(-c3ccccc3)n(CCCN3CCOCC3)c2n1 | active: 31.6 µM | –
23 | COc1ccc(CNc2nc(-c3cccc(C#N)c3)nc3ccccc23)c(OC)c1 | inactive | –
24 | CCCCOCC(O)CN1CCN(C(C)=O)CC1 (stereo not drawn) | inconclusive [inhibitor, single point] | –
25 | Cn1cccc1Cc1nnc(SCC(=O)Nc2ccc(F)cc2)n1CCc1ccccc1 | inconclusive [inhibitor, single point] | –

Row | SMILES | Potency | activity change, negative = inhibition
26 | Cc1cc(-c2csc(NC(=O)c3cc4ccccc4o3)n2)c(C)n1C | inconclusive [inhibitor, partial curve] | –
27 | CCCn1nc(NC(=O)c2cccs2)c2cc3cc(OC)ccc3nc21 | inconclusive [inhibitor, single point] | –
28 | Cn1cnnc1SC(C(=O)c1ccccc1)c1ccccc1 (stereo not drawn) | inconclusive [inhibitor, partial curve] | –
29 | COC(=O)N1CCC2(CCN(Cc3cc(C(F)(F)F)cc(C(F)(F)F)c3)CC2)CC1 | inactive | –
30 | CCOC(=O)c1oc2ccccc2c1NC(=O)c1ccc(S(=O)(=O)N(C)C)cc1 | inconclusive [inhibitor, single point] | –
31 | CCN1CCc2c(sc3c2c(NCc2ccco2)nc2nnnn23)C1 | inconclusive [inhibitor, single point] | –
32 | CC(=O)NC1CCC(C(=O)O)(c2ccccc2)C1 (stereo not drawn) | inconclusive [inhibitor, full curve, poor fit] | –
33 | Cc1ccccc1-c1cncnc1NCc1cccnc1 | inconclusive [inhibitor, partial curve] | –
34 | COc1cccc(-c2nccc(N(C)Cc3ccco3)n2)c1 | inconclusive [inhibitor, partial curve] | –
35 | CCc1ccc(C2C(C#N)=C(N)SC(N)=C2C#N)cc1 | active: 0.631 µM | –
36 | N#CCSc1n[nH]c2nc3c(c(=O)n12)C1(CCCC1)Cc1ccccc1-3 | inconclusive [inhibitor, partial curve] | –
37 | CNc1nc(-c2c(C)noc2C)nc2ccccc12 | inconclusive [inhibitor, single point] | –
38 | CCN1C(=O)CC(N2CCC(Cc3ccccc3)CC2)C1=O (stereo not drawn) | inconclusive [inhibitor, single point] | –
39 | Cc1ccc2cc(C(c3nnnn3C(C)(C)C)N3CCCCCC3)c(=O)[nH]c2c1 (stereo not drawn) | inactive | –
40 | O=S(=O)(NC(=NC1CCCC1)C(F)(F)F)c1ccccc1 | inconclusive [inhibitor, full curve, poor fit] | –
41 | COc1ccccc1-c1nccc(NCc2cnc(C)cn2)n1 | active: 15.8 µM | –
42 | CCOC(=O)c1nn(-c2ccc3c(c2)OCO3)cc1O | inconclusive [inhibitor, single point] | –
43 | CCOC(=O)Cc1cnc(NC(=O)Cn2nnc(-c3ccc(OCC)cc3)n2)s1 | inactive | –
44 | CC1(C)Cc2c(c(N3CCOCC3)nc3sc(C(=O)N4CCCCC4)c(N)c23)CO1 | inconclusive [inhibitor, full curve] | –
45 | COCCn1cnc2c(c1=O)c1nc3ccccc3nc1n2/N=C/c1cccc(OC)c1OC | inactive | –
46 | O=C(Cn1cnc2c(oc3ccccc32)c1=O)N1CCCc2ccccc21 | inconclusive [inhibitor, partial curve] | –
47 | CCOC(=O)C1=C(C)NC(=S)NC1c1cccc(O)c1 (stereo not drawn) | inconclusive [inhibitor, single point] | –
48 | O=C(O)CCCC(=O)NCCCc1ccccc1 | – | inactive: 2.28% [at 11.4 µM]
49 | CS(=O)(=O)Nc1cccc(-c2cncnc2NCc2cccnc2)c1 | inactive | –
50 | Cc1cccc(-c2nc(CS(=O)CC(=O)NCCCSC3CCCCC3)c(C)o2)c1 (stereo not drawn) | inconclusive [inhibitor, partial curve] | –

Row | SMILES | Potency | activity change, negative = inhibition
51 | Clc1ccc(NC2=NCCCCC2)cc1 | inconclusive [inhibitor, single point] | –
52 | CC(C)Cn1c2nc3ccccc3nc2c2c(=O)n(CCN3CCOCC3)cnc21 | inconclusive [inhibitor, single point] | –
53 | Cc1ccccc1-c1nccc(-n2ccnc2)n1 | inconclusive [inhibitor, full curve] | –
54 | CCCCN(CC)CCNS(=O)(=O)c1cccc2cccnc12 | inconclusive [inhibitor, partial curve] | –
55 | CCCn1c(C)nc2c(NCCN(C)C)nc(C)nc21 | active: 25.1 µM | –
56 | CN(C)CN1C(=O)S/C(=C2/C(=O)N(CN(C)C)c3ccccc32)C1=O | – | inactive: 11.3% [at 11.4 µM]
57 | COc1cc2ccc(=O)oc2c(O)c1O | active: 12.6 µM | –
58 | Cc1oc(/N=C/c2c(O)ccc3ccccc23)c(C#N)c1C | inconclusive [inhibitor, single point] | –
59 | c1ccc2sc(N3CCN(Cc4nnnn4CC4CCCO4)CC3)nc2c1 (stereo not drawn) | inactive | –
60 | O=C(Oc1cccc2c(O)cccc12)c1ccccc1 | inconclusive [inhibitor, partial curve] | –
61 | CCNc1sc(C(=O)c2cccs2)c(N)c1-c1nc2ccccc2s1 | inconclusive [inhibitor, partial curve] | –
62 | C=CCNC(=O)c1sc(=S)n(-c2ccc(C(=O)OCC)cc2)c1N | inconclusive [inhibitor, partial curve] | –
63 | Cc1cc2c(ccc3[nH]onc32)n1 | active: 20 µM | –
64 | C[N+]1(CCC[N+]2(C)C[C@H]3[C@H](C2)[C@H]2C=C[C@@H]3CC2)CCOCC1 (stereo partly drawn) | inconclusive [inhibitor, full curve, poor fit] | –
65 | Cc1ccc2cc(C#N)c(NCCNC(=O)C3CC3)nc2c1C | inactive | –
66 | CCNc1ncc2nc(-c3ccc(F)cc3)c(=O)n(C)c2n1 | inconclusive [inhibitor, single point] | –
67 | Cc1cnc(CNc2ncnc3ccc(-c4ccc(N(C)C)cc4)cc23)cn1 | inconclusive [inhibitor, single point] | –
68 | O=C(Nc1ccc2c(c1)nc1n2CCSC1)c1ccco1 | inconclusive [inhibitor, partial curve] | –
69 | CC(C)(C)n1ncc2c(=O)n(CC(=O)Nc3ccc(Cl)cc3)cnc21 | inactive | –
70 | Cc1ccc(-c2noc(C3CCCN(C(=O)c4c(F)cccc4F)C3)n2)cc1 (stereo not drawn) | inconclusive [inhibitor, single point] | –
71 | COC(=O)[C@H](C)NC(=O)Nc1ccc(OC)c(OC)c1 | inactive | –
72 | CCOC(=O)N1CCN(Cc2nc3c(c(=O)n(C)c(=O)n3C)n2Cc2cccc(C)c2)CC1 | inconclusive [inhibitor, full curve] | –
73 | CCC(C)(C)n1nnnc1C(c1ccc(O)c(OC)c1)N1CCN(c2nc3ccccc3s2)CC1 (stereo not drawn) | inconclusive [inhibitor, partial curve] | –
